Source: PubChem BioAssay AID938 (National Center for Advancing Translational Sciences (NCATS), 2007)
Screen size: about 73,000 compounds; about 1,800 (2.5%) were called active. Inconclusive results, whose numbers are uncertain, are shown with a selection of clear calls. Calls come from the whole dose curve; as a rule, active = well fitted activation curve with a large enough effect; inconclusive = small, poorly fitted or top-dose-only effect; inactive = no such curve, though single readings can be large or run the other way. No potency is given beside an inconclusive call; the fits are too rough.

Assay: qHTS Assay for Agonists of the Thyroid Stimulating Hormone Receptor: Activators of Intracellular cAMP Concentrations in Parental HEK 293; note: nearly all actives have a fitted effect of over 55% in size; for activation: % of control where 0% means no effect
Conditions: parental HEK293 CNG cAMP sensor, membrane potential fluorescence; activation: at 57.1 µM (top of the series) unless noted
In short: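 Parental HEK 293 cells stably expressing a modified CNG channel (no TSHR) report cAMP rise as membrane depolarization. Membrane potential dye with 100 uM RO 20-1724 was loaded for 60 min at room temperature, then compound added for 30 min; fluorescence read at 590 nm.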
Potency is the fitted concentration of half-maximal effect; tags give direction and shape of the fitted curve.

| SMILES | Potency | activation |
| --- | --- | --- |
| CCc1ccc(Cn2nnc(C(=O)NCc3ccccc3OC)c2N)cc1 | inconclusive [activator, single point] |  |
| CCOC(=O)c1c(CN2CCCCC2C)oc2ccc(OC)cc12 (stereo not given) | inconclusive [activator, partial curve] |  |
| CCN(CC)CCCC(C)n1c(-c2ccccc2)nc2c(N(CCOC)CCOC)nc(C)nc21 (stereo not given) | inconclusive [activator, partial curve] |  |
| CCOc1cccc(C(=O)Nc2ccccc2N2CCN(C(=O)C(C)C)CC2)c1 | inconclusive [activator, full curve] |  |
| COc1ccc(NC(=O)Nc2ccc(N(C)C)cc2)cc1 |  | inactive: -6.85% |
| O=S(=O)(N1CCCCCC1)N1CCN(S(=O)(=O)N2CCOCC2)CC1 | inconclusive [activator, single point] |  |
| ICCc1ccccc1 |  | inactive: -17.7% |
| O=C(c1cc(O)c(O)c([N+](=O)[O-])c1)c1ccccc1F | inconclusive [activator, partial curve] |  |
| Cc1nc(=O)c(-c2ccccc2)c(C)n1-c1cccc(C(=O)O)c1 | inconclusive [activator, single point] |  |
| COC(=O)c1c(C)oc2ccc(OC(=O)c3cccs3)cc12 | inconclusive [activator, single point] |  |
| CC(C)CN1CCCC2(CCN(C(=O)c3cccn3C)CC2)C1 | inconclusive [activator, single point] |  |
| CCn1c(SCC(=O)OC)nc2sc3c(c2c1=O)CCC3 |  | inactive: 13.1% |
| CCC(=O)N(c1ccc(F)cc1)C1C=CS(=O)(=O)C1 (stereo not given) |  | inactive: 0.374% |
| COC(=O)c1ccc(COC(=O)c2ccc(N(C)C)cc2)cc1 | inconclusive [activator, single point] |  |
| CCC(C(=O)Nc1ccccc1OC)n1c(C(=O)OC)cc2ccsc21 (stereo not given) | inconclusive [activator, partial curve] |  |
| Cc1cc(C)nc(NC(=O)CSc2nn(C)c(=S)s2)n1 |  | inactive: 1.96% |
| O=C(c1cnn2c(C(F)(F)F)cc(-c3ccco3)nc12)N1CCCCCC1 | active: 31.6 µM |  |
| Cc1ccc(-n2nnnc2SCCNS(=O)(=O)c2ccccc2)cc1C | inconclusive [activator, single point] |  |
| COc1cc(NC(=O)c2ccc(-c3ccc(Br)cc3)o2)ccc1NC(=O)C(C)C | inconclusive [activator, single point] |  |
| Cc1nn(-c2ccccc2)c2sc(C(=O)N(CC(=O)NC3CCCC3)Cc3ccco3)cc12 | inconclusive [activator, partial curve] |  |
